Article PMC5931552
These are yes or no findings as the source states them, for the method shown. In cells and extracts the contact can be indirect. Some binding calls cover weakened binding; strength is not graded here. Where a sequence is shown, tags or fusion partners need not be part of it. One block for each molecule: values may come before it.

The chains behind the UniProt entries cited, without tags or fusion partners. Residues count along the entry.
UniProt O75581, residues 20-1370: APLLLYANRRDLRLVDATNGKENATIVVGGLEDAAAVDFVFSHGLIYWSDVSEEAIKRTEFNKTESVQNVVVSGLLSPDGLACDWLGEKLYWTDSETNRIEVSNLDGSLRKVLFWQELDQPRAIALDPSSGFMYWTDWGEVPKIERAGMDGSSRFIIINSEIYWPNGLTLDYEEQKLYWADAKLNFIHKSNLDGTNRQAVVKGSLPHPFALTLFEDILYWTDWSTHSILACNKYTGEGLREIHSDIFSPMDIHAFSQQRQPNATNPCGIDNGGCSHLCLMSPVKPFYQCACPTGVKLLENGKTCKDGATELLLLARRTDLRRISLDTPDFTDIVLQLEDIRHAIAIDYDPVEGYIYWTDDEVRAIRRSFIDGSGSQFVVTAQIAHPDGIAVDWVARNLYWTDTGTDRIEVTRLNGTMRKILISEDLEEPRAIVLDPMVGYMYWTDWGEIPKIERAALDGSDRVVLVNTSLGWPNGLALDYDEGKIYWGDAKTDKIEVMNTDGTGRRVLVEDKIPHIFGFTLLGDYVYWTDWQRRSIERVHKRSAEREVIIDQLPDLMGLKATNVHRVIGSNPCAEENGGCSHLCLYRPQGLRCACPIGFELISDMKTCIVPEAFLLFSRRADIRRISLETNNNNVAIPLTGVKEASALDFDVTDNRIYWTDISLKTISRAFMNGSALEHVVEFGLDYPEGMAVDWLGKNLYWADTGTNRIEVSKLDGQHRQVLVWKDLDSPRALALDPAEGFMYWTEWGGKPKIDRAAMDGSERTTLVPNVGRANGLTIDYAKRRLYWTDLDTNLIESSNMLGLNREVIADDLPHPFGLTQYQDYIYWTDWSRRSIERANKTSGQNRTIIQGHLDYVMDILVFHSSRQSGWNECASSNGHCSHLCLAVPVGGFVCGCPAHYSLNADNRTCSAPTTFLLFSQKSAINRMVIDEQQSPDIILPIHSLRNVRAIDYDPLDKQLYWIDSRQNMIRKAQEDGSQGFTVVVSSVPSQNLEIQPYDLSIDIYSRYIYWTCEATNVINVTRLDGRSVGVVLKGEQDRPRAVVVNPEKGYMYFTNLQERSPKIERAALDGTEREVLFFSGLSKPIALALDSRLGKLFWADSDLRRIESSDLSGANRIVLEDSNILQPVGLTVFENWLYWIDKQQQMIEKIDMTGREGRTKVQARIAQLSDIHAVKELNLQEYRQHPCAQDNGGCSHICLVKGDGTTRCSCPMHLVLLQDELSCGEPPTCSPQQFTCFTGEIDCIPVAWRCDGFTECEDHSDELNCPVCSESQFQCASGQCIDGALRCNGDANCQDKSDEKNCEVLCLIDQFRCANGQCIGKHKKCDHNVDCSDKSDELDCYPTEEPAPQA
UniProt Q61091, residues 28-685: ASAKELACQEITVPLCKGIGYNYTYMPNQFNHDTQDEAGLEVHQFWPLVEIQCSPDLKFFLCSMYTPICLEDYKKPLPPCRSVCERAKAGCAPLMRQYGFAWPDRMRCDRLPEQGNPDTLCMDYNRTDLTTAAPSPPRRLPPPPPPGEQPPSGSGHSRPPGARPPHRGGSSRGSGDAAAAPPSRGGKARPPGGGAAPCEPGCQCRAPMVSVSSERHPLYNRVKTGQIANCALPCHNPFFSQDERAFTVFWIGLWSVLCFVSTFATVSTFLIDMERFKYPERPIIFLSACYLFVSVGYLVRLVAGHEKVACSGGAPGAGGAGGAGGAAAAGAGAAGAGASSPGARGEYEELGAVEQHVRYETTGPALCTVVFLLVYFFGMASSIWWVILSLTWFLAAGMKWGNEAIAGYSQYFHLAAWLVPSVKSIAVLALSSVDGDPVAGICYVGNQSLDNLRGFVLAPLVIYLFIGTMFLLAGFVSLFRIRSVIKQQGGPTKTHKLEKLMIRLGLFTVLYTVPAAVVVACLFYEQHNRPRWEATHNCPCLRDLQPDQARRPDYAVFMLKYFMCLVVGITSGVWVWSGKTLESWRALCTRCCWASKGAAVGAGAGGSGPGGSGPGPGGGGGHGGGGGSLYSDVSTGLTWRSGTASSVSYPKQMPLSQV
UniProt P37173, residues 23-567: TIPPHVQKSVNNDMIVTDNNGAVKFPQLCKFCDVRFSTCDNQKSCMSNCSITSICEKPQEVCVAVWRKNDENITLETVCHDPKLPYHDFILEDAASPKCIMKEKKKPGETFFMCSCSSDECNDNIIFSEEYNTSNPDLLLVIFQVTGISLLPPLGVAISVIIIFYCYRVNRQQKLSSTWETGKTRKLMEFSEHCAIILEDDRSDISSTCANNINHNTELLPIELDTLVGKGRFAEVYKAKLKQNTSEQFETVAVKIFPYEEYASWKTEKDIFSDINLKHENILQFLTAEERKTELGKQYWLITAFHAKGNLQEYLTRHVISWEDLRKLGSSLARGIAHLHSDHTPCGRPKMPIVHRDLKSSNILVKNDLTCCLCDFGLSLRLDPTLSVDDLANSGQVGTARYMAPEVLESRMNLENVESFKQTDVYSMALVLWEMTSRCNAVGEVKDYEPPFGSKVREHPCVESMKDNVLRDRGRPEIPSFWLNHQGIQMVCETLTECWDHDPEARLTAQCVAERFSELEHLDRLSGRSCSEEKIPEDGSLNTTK
UniProt P84022: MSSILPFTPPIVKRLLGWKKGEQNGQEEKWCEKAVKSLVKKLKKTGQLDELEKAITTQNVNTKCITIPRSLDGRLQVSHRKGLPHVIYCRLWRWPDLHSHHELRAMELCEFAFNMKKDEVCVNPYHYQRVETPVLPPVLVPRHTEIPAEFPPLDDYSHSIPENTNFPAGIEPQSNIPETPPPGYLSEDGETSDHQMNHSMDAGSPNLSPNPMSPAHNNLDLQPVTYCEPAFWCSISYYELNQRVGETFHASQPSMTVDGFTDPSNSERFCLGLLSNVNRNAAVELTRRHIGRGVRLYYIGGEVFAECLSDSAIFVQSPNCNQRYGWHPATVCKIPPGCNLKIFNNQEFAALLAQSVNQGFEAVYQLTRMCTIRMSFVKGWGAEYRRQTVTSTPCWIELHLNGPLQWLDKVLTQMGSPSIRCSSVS

Key:
[1] = biological target: extracellular domain of LRP6 fused to IgG (pCS2 LRP6N-IgG) (UniProt O75581); test: pull-down; PC-3M cells transfected 24 h with the IgG fusion protein (FZD8-CRD-IgG or LRP6-IgG) and Flag-TGFβRI, HA-TGFβRII or Flag-ALK5-HA(ecto); Protein A/G-agarose pull-down from the lysate without antibody; blots for HA, Flag and IgG
HA-ATF2 = biological target: T1, HA-ATF2 (UniProt P15336); test: co-IP; PC-3M cells transfected with Flag-SMAD3:HA-ATF2:HA-JUN (5:10:1); immunoprecipitation from the lysate (50 mM Tris-HCl pH 8, 150 mM NaCl, 1% Triton X-100, 1 mM EDTA); Western blot
T1 sequence: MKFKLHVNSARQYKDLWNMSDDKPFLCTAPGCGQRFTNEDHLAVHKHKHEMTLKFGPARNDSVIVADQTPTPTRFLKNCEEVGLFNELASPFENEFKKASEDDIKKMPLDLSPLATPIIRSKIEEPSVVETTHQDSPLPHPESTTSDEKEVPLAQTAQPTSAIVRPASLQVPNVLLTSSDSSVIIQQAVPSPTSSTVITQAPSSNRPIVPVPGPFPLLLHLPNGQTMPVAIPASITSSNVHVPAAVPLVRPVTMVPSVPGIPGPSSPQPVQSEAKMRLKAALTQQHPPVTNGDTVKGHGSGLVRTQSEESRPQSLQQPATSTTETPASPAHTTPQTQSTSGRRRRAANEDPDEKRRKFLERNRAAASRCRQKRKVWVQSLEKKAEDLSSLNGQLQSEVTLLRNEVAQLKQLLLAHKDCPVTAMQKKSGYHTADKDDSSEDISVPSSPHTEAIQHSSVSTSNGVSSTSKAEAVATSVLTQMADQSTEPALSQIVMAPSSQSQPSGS

[2] = biological target: 1D4-tagged FZD8 (pRK5 mFzd8-1D4) (mouse) (UniProt Q61091); test: co-IP; PC-3M cells transfected 24 h with FZD8-1D4, TGFβRI-Flag and HA-TGFβRII; treated -/+ 1 ng/ml TGF-β for 30 min in one panel; lysis in 50 mM Tris-HCl pH 8, 150 mM NaCl, 1% Triton X-100, 1 mM EDTA; anti-1D4 immunoprecipitates; blots for HA, Flag and 1D4
[3] = biological target: 1D4-tagged FZD8 (pRK5 mFzd8-1D4) (mouse) (UniProt Q61091); test: co-IP; PC-3M cells transfected 24 h with FZD8-1D4 and Wnt-11-PA (1:2); lysis in 50 mM Tris-HCl pH 8, 150 mM NaCl, 1% Triton X-100, 1 mM EDTA; anti-1D4 and anti-PA immunoprecipitates on Protein A/G PLUS-Agarose; Western blot

Molecule: HA-tagged TGFβRII (pCMV5B TGFβR2 wild-type, N-terminal HA) (from UniProt P37173 23-567) (receptor)
binding [1]: no binding

B2: PA-tagged Wnt-11 (ligand, UniProt O96014 25-354)
chain: IKWLALSKTPSALALNQTQHCKQLEGLVSAQVQLCRSNLELMHTVVHAAREVMKACRRAFADMRWNCSSIELAPNYLLDLERGTRESAFVYALSAAAISHAIARACTSGDLPGCSCGPVPGEPPGPGNRWGGCADNLSYGLLMGAKFSDAPMKVKKTGSQANKLMRLHNSEVGRQALRASLEMKCKCHGVSGSCSIRTCWKGLQELQDVAADLKTRYLSATKVVHRPMGTRKHLVPKDLDIRPVKDSELVYLQSSPDFCMKNEKVGSHGTQDRQCNKTSNGSDSCDLMCCGRGYNPYTDRVVERCHCKYHWCCYVTCRRCERTVERYVCK
binding [3]: binds

Further lines, results first:

binding (HA-ATF2): no binding
Molecule: Flag-SMAD3 (from UniProt P84022 1-425)

binding [1]: no binding | binding [2]: binds
B1: Flag-tagged TGFβRI (pRK5 TGFβR1-Flag) (receptor, UniProt P36897 34-503)
chain: LQCFCHLCTKDNFTCVTDGLCFVSVTETTDKVIHNSMCIAEIDLIPRDRPFVCAPSSKTGSVTTTYCCNQDHCNKIELPTTVKSSPGLGPVELAAVIAGPVCFVCISLMLMVYICHNRTVIHHRVPNEEDPSLDRPFISEGTTLKDLIYDMTTSGSGSGLPLLVQRTIARTIVLQESIGKGRFGEVWRGKWRGEEVAVKIFSSREERSWFREAEIYQTVMLRHENILGFIAADNKDNGTWTQLWLVSDYHEHGSLFDYLNRYTVTVEGMIKLALSTASGLAHLHMEIVGTQGKPAIAHRDLKSKNILVKKNGTCCIADLGLAVRHDSATDTIDIAPNHRVGTKRYMAPEVLDDSINMKHFESFKRADIYAMGLVFWEIARRCSIGGIHEDYQLPYYDLVPSDPSVEEMRKVVCEQKLRPNIPNRWQSCEALRVMAKIMRECWYANGAARLTALRIKKTLSQLSQQEGIKM
